# Test results from PubChem BioAssay AID1768 (National Center for Advancing Translational Sciences (NCATS), 2009).
# Where “and” joins values, the source holds several entries; their conditions need not be identical. Identical values can stand only once. In all, about 270,000 compounds went through this assay and about 620 (0.23%) were called active. The inconclusive results got no clear call from the source; some entries with a clear call stand among them for comparison. Calls come from the whole dose curve; as a rule, active = well fitted inhibition curve with a large enough effect in the polarisation, with a control signal flat (not every such curve was filed as active); inconclusive = small, poorly fitted or top-dose-only effect, or effect the other way, or a change in a side signal; inactive = no such curve, though single readings can be large or run the other way; the % refers to the polarisation. Potencies of inconclusive entries are doubtful fits and often do not repeat. A note “side channel” means that the fit belongs to a control or component signal, not to the main read-out. Some compounds were tested as several samples or in several runs, with calls that do not always agree.
# Target: Menin (Homo sapiens) (UniProt O00255)
# Sequence of UniProt O00255 (O00255 whole entry, looked up): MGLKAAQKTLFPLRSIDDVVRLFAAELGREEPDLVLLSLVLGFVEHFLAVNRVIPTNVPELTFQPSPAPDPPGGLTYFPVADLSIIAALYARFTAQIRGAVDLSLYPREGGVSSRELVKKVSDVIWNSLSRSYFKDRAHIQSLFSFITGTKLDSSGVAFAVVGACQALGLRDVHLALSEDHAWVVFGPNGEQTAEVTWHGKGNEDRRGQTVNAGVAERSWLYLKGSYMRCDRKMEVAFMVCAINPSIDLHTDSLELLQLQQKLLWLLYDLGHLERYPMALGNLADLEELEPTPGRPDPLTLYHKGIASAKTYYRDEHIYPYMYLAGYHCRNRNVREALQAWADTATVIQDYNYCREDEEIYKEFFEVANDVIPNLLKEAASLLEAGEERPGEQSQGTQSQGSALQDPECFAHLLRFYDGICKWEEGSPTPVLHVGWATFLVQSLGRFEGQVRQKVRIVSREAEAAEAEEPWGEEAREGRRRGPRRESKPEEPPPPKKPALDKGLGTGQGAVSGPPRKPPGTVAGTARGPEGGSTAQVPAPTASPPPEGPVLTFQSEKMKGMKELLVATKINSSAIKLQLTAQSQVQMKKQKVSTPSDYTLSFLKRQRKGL
# Test: qHTS Assay for Inhibitors Targeting the Menin-MLL Interaction in MLL Related Leukemias: Competition With Texas Red Labeled MLL-derived Mutant Peptide; for FP activity change, negative = inhibition: % of control where 0% means no effect
# Settings: fluorescence polarization; FP activity change, negative = inhibition: at 61.6 µM (top of the series)
# Potency is the fitted concentration of half-maximal effect; tags give direction and shape of the fitted curve or compound fluorescence and quenching.
SMILES,Potency,"FP activity change, negative = inhibition"
COc1cc(NCc2ccc3nc(N)nc(N)c3c2C)cc(OC)c1OC,inactive and active: 25.1 µM,
CCn1cc(CN2CCC(C(=O)Nc3cccc(-c4cccc(F)c4)c3)CC2)cn1,"inconclusive: 6.31 µM [fluorescent, side channel, single point]",
CCOC(=O)Cn1nc(-c2ccc(F)cc2)cc(Cc2ccccc2)c1=O,"inconclusive: 31.6 µM [fluorescent, side channel, partial curve]",
Cc1ccc(S(=O)(=O)N[C@@H](Cc2ccccc2)C(=O)CCl)cc1,"inactive and inconclusive: 11.2 µM [fluorescent, side channel, partial curve]",
O=C(NC(Cc1c[nH]c2ccccc12)c1nnc2n1CCCCC2)c1ccccc1Cl (stereo unspecified),"inconclusive: 8.91 µM [inhibitor, full curve]",
CCOC(=O)C(c1ccc(OC)c(OC)c1)C1c2ccccc2C=C(C)N1C(=O)OC (stereo unspecified),,inactive: -17.7% [at 11.7 µM]
CCCCNC(=O)CNC(=O)c1nn(-c2ccc(OC)cc2OC)c(=O)c2ccccc12,"inconclusive: 39.8 µM [inhibitor, single point]",
COc1ccc2[nH]c(C(=O)O)c(NS(=O)(=O)c3ccc(F)cc3)c2c1,"inconclusive: 25.1 µM [quencher, side channel, single point]",
O=C(c1ccc2c3c(cccc13)CC2)N1CCOCC1,"inconclusive: 1.26 µM [inhibitor, full curve]",
Cc1ccc(CC(=O)Nc2ccccc2-c2ccccc2)cc1C,"inconclusive: 14.1 µM [fluorescent, side channel, single point]",
CC(NC(=O)COC(=O)c1cc(NS(=O)(=O)c2ccc(Cl)c([N+](=O)[O-])c2)ccc1O)C1CC2CCC1C2 (stereo unspecified),"inconclusive: 10 µM [quencher, side channel, partial curve]",
COc1cc(/C=C2/NC(=O)N(Cc3ccccc3F)C2=O)ccc1O,"inconclusive: 25.1 µM [quencher, side channel, partial curve]",
O=c1c2ccccc2[nH]c(=S)n1Cc1cccs1,"inconclusive: 39.8 µM [inhibitor, single point]",
CCC(C)C(=O)Nc1nc(C)c(-c2csc(Nc3cc(OC)ccc3OC)n2)s1 (stereo unspecified),"inconclusive: 10 µM [quencher, side channel, partial curve]",
COc1ccc(C2C(C(C)=O)=C(O)C(=O)N2CCc2c[nH]c3ccccc23)cc1 (stereo unspecified),"inconclusive: 39.8 µM [quencher, side channel, single point]",
O=C(O)CCc1ccc(-c2ccc(Cl)cc2)n1NC(=O)c1ccc(O)cc1,"inconclusive: 15.8 µM [quencher, side channel, partial curve]",
COc1ccc(C=C2c3ccccc3C(=O)c3ccccc32)cc1O,,inactive: 39.8%
Oc1nc(Nc2cccc(Cl)c2)sc1/C=C1\C=Nc2ccccc21,"inconclusive: 6.31 µM [quencher, side channel, partial curve]",
O=C1CCC/C1=C/Nc1ccc2c(c1)OCO2,"inconclusive: 20 µM [inhibitor, partial curve]",

SMILES,Potency,"FP activity change, negative = inhibition"
COc1cccc(CN2CCN(C(=O)c3ccc(-c4ccccc4)cc3)CC2)c1,"inconclusive: 8.91 µM [fluorescent, side channel, partial curve]",
Cc1ccc(SCCC(=O)OCC(=O)NCC2CCCCC2)cc1,"inconclusive: 22.4 µM [fluorescent, side channel, single point]",
O=CN1CCc2c([nH]c3ccccc23)C1c1cccc2cccnc12 (stereo unspecified),,inactive: 15.1%
COc1ccc(/C=C/c2nc(N)nc(-c3ccccc3O)n2)cc1,"inconclusive: 14.1 µM [quencher, side channel, partial curve]",
O=C(Nc1ccccc1)c1ccc(NC2CCCCC2)c(S(=O)(=O)N2CCOCC2)c1,,inactive: -5.52%
CCOC(=O)c1cc(-c2ccccc2)sc1NC(=O)CSc1nnnn1C,"inconclusive: 12.6 µM [quencher, side channel, partial curve]",
COc1ccc(NN=Nc2ccc([N+](=O)[O-])cc2)cc1,"inconclusive: 17.8 µM [quencher, side channel, single point]",
Cc1cccc(OCC(=O)Nc2ccccc2N2CCCCC2)c1,"inconclusive: 39.8 µM [fluorescent, side channel, single point]",
CC1=NN(c2cccc([N+](=O)[O-])c2)C(=O)C1,"inconclusive: 31.6 µM [quencher, side channel, partial curve]",
Cc1cc(C)cc(C(=O)N(CCc2ccccc2)C2CC3CCC(C2)N3C)c1 (stereo unspecified),,inactive: -23.2%
COc1ccccc1CNCc1cc(Br)ccc1OC,"inconclusive: 10 µM [fluorescent, side channel, partial curve]",
COc1ccc(N2C(=O)CC(Nc3ccc(F)cc3)C2=O)c([N+](=O)[O-])c1 (stereo unspecified),"inconclusive: 39.8 µM [quencher, single point]",
O=C(Nc1ccc(NC(=O)c2ccc(S(=O)(=O)c3ccccc3)cc2)cc1)c1ccccc1,active: 10 µM,
O=[N+]([O-])c1ccc2[nH]c3c(c2c1)CCCC3O (stereo unspecified),"inconclusive: 15.8 µM [quencher, side channel, partial curve, poor fit]",
O=C(Nc1cccc(Cl)c1)c1cc(S(=O)(=O)NCCc2ccc(Cl)cc2)ccc1F,"inconclusive: 7.94 µM [quencher, side channel, full curve, poor fit]",
CCOc1ccc(NC(=S)N(CCc2c(C)[nH]c3ccccc23)Cc2ccco2)cc1,"inconclusive: 1.12 µM [quencher, side channel, full curve, poor fit]",
O=[N+]([O-])c1ccc(Nc2nc(NC3CCCCC3)nc(N3CCCC3)n2)cc1,"inconclusive: 10 µM [quencher, partial curve]",
Cc1ccc(NC(=O)Cn2c(=O)oc3ccccc32)cc1Cl,"inconclusive: 39.8 µM [fluorescent, single point]",
C=CCOC(=O)N[C@H](C[N+](=O)[O-])c1ccccc1,,inactive: -22.5%

SMILES,Potency,"FP activity change, negative = inhibition"
CN1CCN(C(=O)/C(=C/c2cccc([N+](=O)[O-])c2)NC(=O)c2ccccc2)CC1,"inconclusive: 39.8 µM [fluorescent, side channel, single point]",
NC1=Nc2cccc3cccc1c23,,inactive: -19.9%
COc1cccc(CC2(CO)CCCN(Cc3ccc(CN4CCCCC4)s3)C2)c1 (stereo unspecified),,inactive: -28%
CCN(N=Nc1cccc([N+](=O)[O-])c1)c1cccc([N+](=O)[O-])c1,"inconclusive: 35.5 µM [quencher, side channel, single point]",
CCn1c(=O)n(CC(=O)NC2CCCC(C)C2C)c(=O)c2ccccc21 (stereo unspecified),"inconclusive: 7.08 µM [inhibitor, full curve]",
Cc1ccc(S(=O)(=O)N(C)Cc2ccc(C(=O)NN=C(CC(C)C)CC(C)C)cc2)cc1,"inconclusive: 35.5 µM [fluorescent, side channel, single point]",
CC(C)(C)OC(=O)[C@H](Cc1ccccc1)NC(=O)c1nc[nH]c1C(=O)NC1CCN(C(=O)OC(C)(C)C)CC1,"inconclusive: 3.16 µM [fluorescent, side channel, full curve]",
COc1ccccc1NC(=O)c1cc2c(CO)cnc(C)c2oc1=Nc1ccccc1,"inconclusive: 10 µM [inhibitor, partial curve]",
CC(C)[C@H](NC(=O)[C@@H]1CSSC[C@H](NC(=O)[C@H](CC(=O)O)NC(=O)[C@H](C)NC(=O)[C@@H](NC(=O)CNC(=O)[C@H](C)N)[C@@H](C)O)C(=O)N[C@@H](Cc2ccccc2)C(=O)N[C@@H](Cc2c[nH]c3ccccc23)C(=O)N[C@@H](CCCCN)C(=O)N[C@@H](Cc2ccc(O)cc2)C(=O)N1)C(=O)O,,inactive: -10.5%
COc1cc(C(=O)O/N=C(\N)c2ccncc2)cc(OC)c1OC,"inconclusive: 39.8 µM [inhibitor, single point]",
O=C(NC(=S)Nc1cccnc1Cl)c1ccc(Cl)cc1,"inconclusive: 22.4 µM [quencher, side channel, single point]",
COc1cccc(C(=O)CC(=O)C(=O)Nc2cc(Cl)c(OC)cc2OC)c1,"inconclusive: 25.1 µM [quencher, side channel, single point]",
CCOc1ccc(NC(=O)Cn2cc(C(=O)CC)c3ccccc32)cc1,"inconclusive: 39.8 µM [fluorescent, side channel, single point]",
COc1ccc(-c2cc(=S)ss2)cc1,"inconclusive: 35.5 µM [quencher, side channel, partial curve]",
O=C(Nc1ccc(N2CCOCC2)c(Cl)c1)c1cc2ccccc2o1,"inconclusive: 14.1 µM [quencher, side channel, partial curve]",
COc1ccc(C2CC(c3ccc4ccccc4c3)=NN2C(=O)COC(=O)C2CCC(=O)N2)cc1 (stereo unspecified),"inconclusive: 3.98 µM [fluorescent, side channel, full curve, poor fit]",
COc1c(O)ccc(/C=C(\C#N)c2nc3ccccc3[nH]2)c1[N+](=O)[O-],"inconclusive: 25.1 µM [quencher, side channel, partial curve]",
CC(C)CCC(CCN1CCOCC1)c1ccc2c(c1)OCO2 (stereo unspecified),"inconclusive: 10 µM [fluorescent, side channel, partial curve]",
